Out of some 280,000 compounds screened, about 100 (0.036%) were called active. This list was built around the results that the source calls inconclusive (neither active nor inactive); the mix of calls is not that of the screen. The call rests on the fitted dose curve; in most records, active means well fitted inhibition curve with a large enough effect in the signal ratio, with a control signal flat (not every such curve was filed as active); inconclusive means small, poorly fitted or top-dose-only effect, or effect the other way, or a change in a side signal; inactive means no such curve, though single readings can be large or run the other way; the % refers to the signal ratio. Where the call is inconclusive, the potency comes from a doubtful curve fit. A note “side channel” means that the fit belongs to a control or component signal, not to the main read-out.
Target: Muscleblind-like protein 1 (Homo sapiens) (UniProt Q9NR56)
Sequence of UniProt Q9NR56 (Q9NR56 whole entry, looked up): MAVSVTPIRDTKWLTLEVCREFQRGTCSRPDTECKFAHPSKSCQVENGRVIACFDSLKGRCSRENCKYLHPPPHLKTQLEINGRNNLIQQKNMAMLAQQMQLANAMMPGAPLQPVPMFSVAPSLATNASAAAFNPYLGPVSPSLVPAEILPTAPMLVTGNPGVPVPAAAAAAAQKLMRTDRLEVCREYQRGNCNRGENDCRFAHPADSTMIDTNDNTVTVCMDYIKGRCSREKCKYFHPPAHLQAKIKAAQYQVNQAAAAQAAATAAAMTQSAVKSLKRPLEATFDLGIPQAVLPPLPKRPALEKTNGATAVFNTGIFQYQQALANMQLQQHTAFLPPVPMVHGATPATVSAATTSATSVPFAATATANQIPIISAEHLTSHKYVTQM
Test: qHTS Assay for Inhibitors of MBNL1-poly(CUG) RNA binding
Details: TR-FRET MBNL1-His/biotin-(CUG)12 binding, 665/545 ratio; activity change, negative = inhibition: at 57.5 µM (top of the series)
How it was run: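 TR-FRET between His-tagged MBNL1 and biotin-(CUG)12 RNA, detected with Tb anti-His antibody (0.055 ng/ul) and streptavidin-XL665 (5 nM), 60 min at room temperature. Compounds titrated 92 nM to 58 uM; 665/545 nm ratio normalized to buffer and complex controls.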
On the % scale 0 is the no-effect control and ±100 the full control effect; potency means the concentration at half of the fitted maximal effect; tags describe the fitted curve by direction and shape or compound fluorescence and quenching.

SMILES | Potency | activity change, negative = inhibition
O=C(c1ccc2c3n(nc2c1)-c1ccccc1CO3)N1CCCCC1 | inconclusive: 35.5 µM [quencher, side channel, single point] | –
Cc1ccc(-n2c(C)cc(C(=O)COc3c(CO)cc(F)cc3CO)c2C)cc1C | inconclusive: 3.16 µM [quencher, side channel, single point] | –
Cc1oc2cc3c(C(=O)N4CCCCC4)c(C)oc3cc2c1C(=O)N1CCCCC1 | – | inactive: 8.49%
CCOC(=O)Cc1csc(N/C(=N/S(=O)(=O)c2cc(Br)ccc2OCC)c2ccccc2)n1 | – | inactive: -2.61%
COc1cc(C(=O)N2CCc3ccccc32)c([N+](=O)[O-])cc1OC | inconclusive: 17.8 µM [quencher, side channel, partial curve] | –
Cc1nn(Cc2ccccc2)c(C)c1NC(=O)CSc1nc(C2CC2)nc2c1cnn2-c1ccccc1 | inconclusive: 8.91 µM [quencher, side channel, single point] | –
O=C(COc1ncnc2cc([N+](=O)[O-])ccc12)NCCc1ccc(Cl)cc1 | inconclusive: 12.6 µM [quencher, side channel, partial curve] | –
CC12CC3(C)CC(C)(C1)CC(C(=O)NC(=S)N1CCOCC1)(C2)C3 | – | inactive: -4.6%
O=C(Oc1cccc(C(=S)N2CCOCC2)c1)c1ccc([N+](=O)[O-])cc1[N+](=O)[O-] | inconclusive: 14.1 µM [quencher, partial curve] | –
O=C(/C=C/c1cccs1)N1CCN(Cc2ccc3c(c2)OCO3)CC1 | inconclusive: 2.51 µM [quencher, side channel, full curve, poor fit] | –
CC(=O)N1CCN(c2cc(N3CCCC3)c(F)cc2[N+](=O)[O-])CC1 | inconclusive: 2.82 µM [quencher, side channel, full curve] | –
COc1ccc(OC)c(C(=O)NC(CC(N)=O)c2ccc(NC(C)C)c([N+](=O)[O-])c2)c1 (stereo unspecified) | inconclusive: 6.31 µM [quencher, side channel, partial curve] | –
CCN(CC)C(=O)Cn1cc(C(=O)C(=O)Nc2ccc3c(c2)OCCO3)c2ccccc21 | inconclusive: 10 µM [quencher, side channel, partial curve] | –
COc1cccc(/C=C2\SC(=S)N(CCCC(=O)Nc3cc(C)on3)C2=O)c1 | – | inactive: -1.7%
CC1OC(Oc2ccc3ccc(=O)oc3c2-c2c(O)ccc3cc(Oc4ccc5ccc(=O)oc5c4)c(=O)oc23)C(O)C(O)C1O (stereo unspecified) | inconclusive: 31.6 µM [quencher, side channel, partial curve] | –
COc1ccc(N2C(=O)CSC2c2ccc([N+](=O)[O-])cc2)cc1 (stereo unspecified) | inconclusive: 14.1 µM [quencher, side channel, partial curve] | –
Cc1ccc(NC(=O)C2CCN(S(=O)(=O)c3ccc(F)cc3)CC2)cc1 | – | inactive: -4.17%
CN(C)C(=S)NC(=O)C12CC3(C)CC(C)(CC(C)(C3)C1)C2 | – | inactive: -4.42%
Cc1ccc(C)c(C(=O)COc2ccc(C)nc2[N+](=O)[O-])c1 | – | inactive: 16.1%
Oc1c(C(c2ccccn2)N2CCC(Cc3ccccc3)CC2)cc(Cl)c2cccnc12 (stereo unspecified) | – | inactive: 9.17%
C/C(=N\Nc1ccc(C(=O)O)cc1)c1nc2ccccc2n1C | inconclusive: 0.794 µM [fluorescent, side channel, partial curve] | –

SMILES | Potency | activity change, negative = inhibition
COc1cc(SC)ccc1C(=O)N1CCN(c2ccccc2F)CC1 | – | inactive: -14%
CC(C)NC(=S)NNc1nc2ccccc2s1 | – | inactive: -3.91%
Cn1cnc([N+](=O)[O-])c1Sc1ncccc1N | inconclusive: 22.4 µM [quencher, side channel, partial curve] | –
O=C(CNC(=O)c1cccc(F)c1)N/N=C/c1cccs1 | inconclusive: 15.8 µM [quencher, side channel, partial curve] | –
CCOc1cccc(/C=N/N2C(=O)CSC2=S)c1O | inconclusive: 28.2 µM [quencher, side channel, single point] | –
CC(=O)c1sc2nc(C)c3c(c2c1N)CCCC3 | inconclusive: 11.2 µM [quencher, side channel, partial curve] | –
O=C(NC(=S)NCc1ccccc1)c1cccc([N+](=O)[O-])c1 | inconclusive: 28.2 µM [quencher, side channel, single point] | –
C=CCNC(=O)C1CC2Cn3c(nc4cc5ccccc5cc43)C2N1C (stereo unspecified) | inconclusive: 22.4 µM [quencher, side channel, partial curve, poor fit] | –
O=[N+]([O-])c1cccc(S(=O)(=O)NCCc2cccs2)c1 | inconclusive: 12.6 µM [quencher, side channel, partial curve] | –
CCCc1cc(C(=O)NCc2ccccc2)no1 | inconclusive: 0.631 µM [quencher, side channel, single point] | –
COc1ccc(-c2cnnn2-c2ccc([N+](=O)[O-])cc2)cc1 | inconclusive: 7.94 µM [quencher, partial curve] | –
O=C(CCCOc1ccc(Cl)cc1Cl)NN1CCOCC1 | inconclusive: 7.94 µM [fluorescent, side channel, partial curve] | –
Cc1ccc(C(=O)Nc2cc([N+](=O)[O-])ccc2F)s1 | inconclusive: 10 µM [quencher, partial curve] | –
Cc1cc([N+](=O)[O-])ccc1NC(=O)CCC(=O)N1CCCCC1 | inconclusive: 25.1 µM [quencher, partial curve] | –
O=C(N/N=C/c1ccncc1)c1cccc(N/N=C/c2ccncc2)c1 | inconclusive: 12.6 µM [quencher, partial curve] | –
COc1ccc(-c2c(C)nn3c(N4CCC5(CC4)OCCO5)cc(C)nc23)cc1OC | inconclusive: 3.98 µM [quencher, side channel, single point] | –
O=C(NC(N1CCOCC1)C(Cl)(Cl)Cl)c1cc([N+](=O)[O-])cc([N+](=O)[O-])c1 (stereo unspecified) | inconclusive: 11.2 µM [quencher, side channel, partial curve] | –
COc1ccc(CCNC(=O)CSc2ccsc2[N+](=O)[O-])c(OC)c1 | inconclusive: 10 µM [quencher, side channel, partial curve] | –
CC1(C)CC(=O)C2=C(C1)Nc1cc(Cl)ccc1S2 | inconclusive: 14.1 µM [quencher, side channel, partial curve] | –
C=C(C)C1CC=C(C)/C(=N/NC(=O)c2ccc(NC(=O)CC)cc2)C1 (stereo unspecified) | – | inactive: -7.35%
CCOC(=O)/C(N=Nc1ccc2c(c1)OCO2)=C(\C)O | inconclusive: 25.1 µM [quencher, single point] | –

SMILES | Potency | activity change, negative = inhibition
COC(=O)CCCNC(=O)OCc1ccc([N+](=O)[O-])cc1 | inconclusive: 28.2 µM [quencher, side channel, single point] | –
O=C/C(=C\Nc1ccc(Cl)cn1)c1nc2ccccc2o1 | – | inactive: -1.04%
CCCN1C=CC(=C/C=C(\C#N)C(=O)OCC)C=C1 | inconclusive: 6.31 µM [quencher, side channel, partial curve] | –
CNC(=O)C1(C)C=CCN1C(=O)c1ccccc1 (stereo unspecified) | inconclusive: 100 µM [inhibitor, single point] | –
CC1CN(c2ccc([N+](=O)[O-])c(NCCOc3ccc(Cl)cc3)c2)CC(C)N1 (stereo unspecified) | inconclusive: 11.2 µM [quencher, partial curve] | –
COc1ccc(C2C=C(c3ccc(Cl)cc3)Nc3nc(NC(C)=O)nn32)cc1 (stereo unspecified) | inconclusive: 35.5 µM [quencher, side channel, single point] | –
O=C(CSc1ncccn1)NN=C1CCCCCC1 | inconclusive: 1 µM [quencher, side channel, single point] | –
CCC1CCCCN1C(=S)NC(=O)c1cccc([N+](=O)[O-])c1 (stereo unspecified) | inconclusive: 28.2 µM [quencher, side channel, single point] | –
COc1ccc(/C=C/C(=O)Nc2ccc(-n3nncc3-c3ccc(OC)c(OC)c3)cc2)cc1OC | inconclusive: 14.1 µM [activator, single point] | –
O=Cc1cn(-c2ccccc2)nc1-c1ccc2c(c1)OCCO2 | inconclusive: 7.08 µM [quencher, side channel, single point] | –
N#Cc1cccc2cnccc12 | inconclusive: 25.1 µM [quencher, side channel, single point] | –
C=C(C)COc1ccc(-c2[nH]ncc2Oc2cccc(OC)c2)c(O)c1 | – | inactive: 7.95%
Cc1nc(NC(=O)C2CC2)sc1C(=O)Nc1ccc(Br)cc1 | inconclusive: 35.5 µM [fluorescent, side channel, single point] | –
O=[N+]([O-])c1ccc(N2CCN(c3ccc(F)cc3)CC2)cn1 | inconclusive: 2.51 µM [quencher, side channel, partial curve] | –
CC(C)(CO)Nc1ccc([N+](=O)[O-])cc1[N+](=O)[O-] | inconclusive: 12.6 µM [quencher, side channel, partial curve] | –
Cc1cc(NC(=O)CSc2ncn(-c3ccccc3)n2)no1 | – | inactive: 3.43%
CC(C)CN(C)c1nc(N)c(C(=O)N=C(N)N)nc1Cl | inconclusive: 15.8 µM [quencher, side channel, partial curve] | –
COc1ccc(OC)c(CNc2ncc(-c3cccc([N+](=O)[O-])c3)n2C)c1 | inconclusive: 17.8 µM [quencher, side channel, partial curve] | –
O=C(/C=C/c1cccc([N+](=O)[O-])c1)NCc1cccnc1 | inconclusive: 17.8 µM [quencher, side channel, partial curve] | –
